Among the data in PubChem BioAssay AID1346428 (National Center for Advancing Translational Sciences (NCATS), 2018) are activation values, retold here.

In all, about 48,000 compounds went through this assay and about 1,200 (2.5%) were called active. About 2% were inconclusive and are not listed.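 How the source made its calls: active means activation of at least 60% and not above a set upper limit (about 1 call in 100 departs from these limits); inconclusive means activation of 40% to 60%, or above that upper limit; inactive means activation under 40%.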 The list shows a part of the results.

Sequence of UniProt O75388 (O75388 whole entry, looked up, the tested form may be a part): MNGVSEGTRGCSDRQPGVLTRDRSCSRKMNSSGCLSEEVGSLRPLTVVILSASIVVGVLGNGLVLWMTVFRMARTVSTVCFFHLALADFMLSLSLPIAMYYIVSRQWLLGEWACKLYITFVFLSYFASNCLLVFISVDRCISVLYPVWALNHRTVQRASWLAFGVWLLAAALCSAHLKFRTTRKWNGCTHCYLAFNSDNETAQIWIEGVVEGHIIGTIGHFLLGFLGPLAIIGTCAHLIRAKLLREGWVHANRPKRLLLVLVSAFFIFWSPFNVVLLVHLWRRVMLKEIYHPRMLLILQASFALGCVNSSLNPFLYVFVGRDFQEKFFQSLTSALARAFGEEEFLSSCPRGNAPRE

The experiment has as its target Probable G-protein coupled receptor 32 (Homo sapiens) (UniProt O75388). Description: qHTS for Agonists of Human Resolvin D1 Receptor DRV1. The note with it: CHO-K1 GPR32 beta-arrestin PathHunter luminescence, 90 min; at 76.9 µM; hits give high values; zero percent set by DMSO-only wells. The method in brief:
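PathHunter enzyme-fragment complementation, CHO-K1 GPR32 stable line; 2,500 cells/well, overnight attach; cpd 90 min 37 °C 5% CO2; detection reagent 1 h RT; chemiluminescence. DMSO = EC0.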
(qHTS replaces the single test concentration by a dilution series.)
As to `COc1cc(NC(=O)C2=CC(c3ccco3)=NS(=O)(=O)N2C)cc(OC)c1OC`, the activation was inactive: -10.2%.

Regarding `NC(=O)c1ccccc1NC(=O)CN1c2ccccc2S(=O)(=O)c2ccccc21`, the activation is inactive: 7.1%.

Take `Cc1nc(-c2ccccc2)sc1CCNC(=O)C(=O)Nc1ccc(F)c(Cl)c1`: the activation is inactive: 2.18%.

Turning to `CCc1ccc(-n2nnc(-c3nc(-c4ccc(C)cc4)no3)c2N)cc1`, the activation was inactive: 10.6%.

Turning to `COc1cc(Cl)c(C)cc1NC(=O)Cn1c2ncccc2c(=O)n1-c1ccccc1`, the activation is inactive: 1.99%.

For `COC(=O)c1c(NC(=O)COc2ccc(Cl)cc2)sc(C)c1C`, the activation is inactive: -12.1%.

As to `COCc1cc(C)nc2c1C(=O)NC(c1ccc(Br)cc1)N2Cc1ccccc1` (stereo not drawn), the activation was inactive: 25%.

With `COc1cccc(N2CCN(C(=O)Cn3nc(C)n4c(cc5c(OC)cccc54)c3=O)CC2)c1`, the activation is inactive: -1.56%.

With `O=C(Nc1sc2c(c1C(=O)NCc1ccccc1)CCCC2)c1cc(=O)c2ccccc2o1`, the activation is inactive: 1.15%.

`COc1nnc(-c2ccc(N3CCCCC3)c(NC(=O)c3ccccc3Cl)c2)c2ccccc12`: the activation was inactive: -5.16%.

Take `CCc1ccc(NC(=O)C(=O)NCC(c2cccnc2)N2CCc3ccccc3C2)cc1` (stereo not drawn): the activation was inactive: -21.5%.

`COc1ccc(Cl)cc1C(=O)NCc1nnnn1-c1ccccc1`: the activation is inactive: -14.3%.

On to `O=C(NCc1ccc(Cl)cc1)C1CCN(c2ncnc3c2nc2n3CCCCC2)CC1`, for which the activation is inactive: 4.56%.

On to `CCc1ccc(NC(=O)CSc2nc3c(c(=O)[nH]2)CN(Cc2ccc(C)cc2)CC3)cc1`, for which the activation is inactive: 1.54%.

In the case of `CCOc1ccccc1C(=O)NCC(c1cccs1)S(=O)(=O)c1ccc(F)c(C)c1` (stereo not drawn), the activation is inactive: -6.62%.

As for `CCCCNC(=O)c1ccccc1NC(=O)CN(c1ccccc1)S(=O)(=O)N(C)C`, the activation is inactive: 1.63%.

On to `O=C(CSc1nc(=O)n(Cc2ccco2)c2c1CCC2)Nc1ccccc1C(F)(F)F`, for which the activation was inactive: -4.95%.

Consider `Cc1ccc2c(=O)cc(C(=O)Nc3ccc(S(=O)(=O)N4CCCCCC4)cc3)oc2c1`, for which the activation is inactive: -0.445%.

Consider `CCN(Cc1ccccc1)C(=O)Cn1c(=O)n(-c2ccc(Cl)cc2)c(=O)c2c(C)c(C)sc21`, for which the activation is inactive: -3.39%.

For `CCc1nnc(SCC(=O)N(CC)c2ccccc2)c2cc3oc(C)cc3n12`, the activation is inactive: -15.2%.

For `CC(=O)N1CCCc2cc(S(=O)(=O)N3CCC(C(=O)NCc4ccccc4)CC3)ccc21`, the activation is inactive: 3.6%.

`Cc1ccc(Cl)cc1N1CCN(C(=O)c2cc(S(=O)(=O)N3CCCC3)c[nH]2)CC1`: the activation was inactive: -12.3%.

Turning to `CCOC(=O)CNC(c1ccccc1)c1cc(Br)ccc1NC(=O)c1cccc(Cl)c1` (stereo not drawn), the activation was inactive: -41.6%.

Consider `CCc1ccc(NC(=O)C2CCCN(S(=O)(=O)c3ccc(F)cc3)C2)cc1` (stereo not drawn), for which the activation is inactive: 2.89%.

With `Cc1ccc(CN2CCSc3ccc(C(=O)Nc4ccc(C)cc4)cc32)cc1`, the activation is inactive: -21.9%.

On to `CCOc1ccc(OCC)c(NC(=O)c2cnc(SC)nc2-c2ccccc2)c1`, for which the activation was inactive: -15.3%.

As to `C[C@]12CC[C@H]3[C@@H](CCC4=CC(=O)CC[C@@]43C)[C@@H]1CC[C@@H]2C(=O)CO`, the activation is inactive: -40.7%.

In the case of `Cc1ccc(C)c(NC(=O)CSc2nc3c([nH]c4ccccc43)c(=O)n2-c2ccc(F)cc2)c1`, the activation was inactive: -9.85%.

For the compound `Cc1ccc(Cn2c(=O)n(Cc3ccco3)c(=O)c3oc4ccccc4c32)cc1`, the activation was inactive: -5.55%.

For the compound `Cc1ccc(C)c(Cn2c(=O)n(-c3ccc(Cl)cc3)c(=O)c3c(C)c(C)sc32)c1`, the activation was inactive: 8.78%.

Regarding `COc1ccc(CC(=O)NCC(c2ccc(Cl)cc2)N2CCOCC2)cc1` (stereo not drawn), the activation is inactive: -3.54%.

Take `CN(C)S(=O)(=O)c1ccc2c(c1)nnn2CCNC(=O)Nc1ccc(Cl)cc1`: the activation is inactive: 9.71%.

Consider `Cc1ccc(S(=O)(=O)c2nnn3c2nc(NC2CCCCC2)c2sccc23)cc1`, for which the activation is inactive: -22.4%.

In the case of `Cc1ccc(C)c(Oc2nc3c(c(=O)n(C)c(=O)n3C)n2Cc2ccccc2)c1`, the activation is inactive: -22.5%.

As for `Cc1ccc(Cc2cn3cc(-c4ccccc4)nc3s2)cc1`, the activation was inactive: 8.15%.

Take `O=C(CSc1nc2c(oc3ccccc32)c(=O)n1Cc1ccco1)Nc1ccccc1`: the activation is inactive: -8.97%.

On to `Cc1ccc(CNC(=O)CCS(=O)(=O)c2cc3c(cc2C)NC(=O)CO3)cc1`, for which the activation is inactive: 26.1%.

In the case of `Cc1cccc(CSc2nc(-c3cccc(C)c3)nc3c2Cc2c(CO)cnc(C)c2O3)c1`, the activation is inactive: 29.1%.

Take `CCCSC1=NC2(CCN(C(=O)NC3CCCCC3)CC2)N=C1c1ccc(Cl)cc1`: the activation is inactive: 9.76%.

In the case of `Cc1ccc(CN2CCCN(Cc3c(C)cc(C)cc3C)S2(=O)=O)cc1`, the activation was inactive: -19.1%.

With `CC(C)(C)C(=O)OCc1cc(=O)n2nc(C3CC3)sc2n1`, the activation is inactive: 33%.

As for `COc1ccc(C)cc1NC(=O)COCc1cc(-c2ccc(F)cc2)on1`, the activation is inactive: -7.44%.

For `COc1cc(Cl)c(C)cc1NC(=O)Cn1cc(S(=O)(=O)N2CCC(C)CC2)c2ccccc2c1=O`, the activation was inactive: -3.56%.

Take `CCOC(=O)c1cc(-c2ccccc2)n(CC(=O)Nc2ccc(CC)cc2)c1C`: the activation is inactive: -13.3%.

Regarding `CCCN(CCC)c1nn2c(=O)c(C(=O)NCc3cc(Br)ccc3OC)cnc2s1`, the activation was inactive: -7.71%.

As for `Cc1ccc(N2CCN(S(=O)(=O)c3c(C)[nH]c(=O)[nH]c3=O)CC2C)cc1` (stereo not drawn), the activation is inactive: 10.9%.

On to `Cc1nn(Cc2noc(C(=O)NC(C)c3ccccc3)n2)c(C)c1Br` (stereo not drawn), for which the activation is inactive: -2.72%.

As to `COc1ccc(OC)c(CCNC(=O)CCn2c(=O)c3cccn3c3ccc(F)cc32)c1`, the activation was inactive: -24.2%.

Take `Cc1cccc(S(=O)(=O)c2cn(C)c3cc(N4CCN(c5ccc(F)cc5)CC4)c(F)cc3c2=O)c1`: the activation is inactive: -5.2%.

`CC1(C)O[C@@H]2[C@@H](CO[C@@]3(COS(N)(=O)=O)OC(C)(C)O[C@@H]23)O1`: the activation was inactive: -0.901%.

As to `COc1cc(NS(=O)(=O)c2ccc(N)cc2)nc(OC)n1`, the activation is inactive: 3.07%.

For the compound `CC(C)c1ccc(NC(=O)CSC2=Nc3ccccc3C3=NC(CCC(=O)NCc4ccco4)C(=O)N23)cc1` (stereo not drawn), the activation is inactive: 0.505%.

Consider `CC[N+](CC)(CC(=O)Nc1c(C)cccc1C)Cc1ccccc1`, for which the activation was inactive: 9.35%.
